# Results: PMC4336329 (PLoS ONE, 2015)
# Among all 310,000 compounds or so, about 14,000 (4.5%) showed an effect of 50% or more. The effect is printed as a negative number. Some of the results follow.
# Target: human ether-à-go-go-related gene (hERG) potassium channel (human, UniProt Q12809)
# Assay: primary screen, population patch clamp on CHO cells stably expressing hERG
# 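Also: peak tail current of the secondary pulse compared with the same well before compound.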
# Sequence of human ether-à-go-go-related gene (hERG) potassium channel (Q12809 whole entry, looked up): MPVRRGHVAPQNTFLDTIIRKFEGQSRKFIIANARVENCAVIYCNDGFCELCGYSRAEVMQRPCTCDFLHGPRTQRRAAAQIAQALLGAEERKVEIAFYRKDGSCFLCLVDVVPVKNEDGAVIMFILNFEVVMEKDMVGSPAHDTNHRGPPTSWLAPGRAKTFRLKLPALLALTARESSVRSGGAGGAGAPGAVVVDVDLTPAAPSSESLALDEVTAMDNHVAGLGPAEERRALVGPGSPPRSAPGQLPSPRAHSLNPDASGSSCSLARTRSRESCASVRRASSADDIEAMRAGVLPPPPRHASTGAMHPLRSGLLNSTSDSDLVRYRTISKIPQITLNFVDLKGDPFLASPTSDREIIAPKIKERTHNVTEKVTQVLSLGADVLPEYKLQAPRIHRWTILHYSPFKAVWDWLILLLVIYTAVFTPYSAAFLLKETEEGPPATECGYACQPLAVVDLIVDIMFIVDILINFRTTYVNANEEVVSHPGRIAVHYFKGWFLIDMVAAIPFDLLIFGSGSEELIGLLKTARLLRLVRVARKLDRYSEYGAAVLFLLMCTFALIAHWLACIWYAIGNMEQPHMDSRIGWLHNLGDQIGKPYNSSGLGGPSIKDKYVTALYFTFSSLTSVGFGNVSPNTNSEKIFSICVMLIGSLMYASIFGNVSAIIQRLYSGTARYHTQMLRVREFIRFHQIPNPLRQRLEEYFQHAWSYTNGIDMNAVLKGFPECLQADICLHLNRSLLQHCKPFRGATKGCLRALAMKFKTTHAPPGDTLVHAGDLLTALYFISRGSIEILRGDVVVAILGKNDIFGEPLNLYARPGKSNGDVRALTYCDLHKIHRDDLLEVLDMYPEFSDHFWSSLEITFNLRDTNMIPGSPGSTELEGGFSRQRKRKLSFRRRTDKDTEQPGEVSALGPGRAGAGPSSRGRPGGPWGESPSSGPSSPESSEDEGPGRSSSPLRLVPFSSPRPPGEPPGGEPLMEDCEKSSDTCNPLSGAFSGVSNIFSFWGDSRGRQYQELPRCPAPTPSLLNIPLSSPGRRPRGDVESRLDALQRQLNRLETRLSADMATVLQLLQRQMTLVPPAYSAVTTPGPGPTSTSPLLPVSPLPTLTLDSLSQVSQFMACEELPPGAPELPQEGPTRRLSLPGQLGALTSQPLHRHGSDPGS
row,SMILES,"hERG current change (%, negative = inhibition) at 10uM"
1,CCC(=O)N/N=C(\C)CC(=O)Nc1ccc2ccccc2c1,15.5%
2,Cc1c(Cl)cnc(NC(=O)COC(=O)c2ccc([N+](=O)[O-])s2)c1Cl,6.06%
3,O=C(NCCN1CCOCC1)c1ccc(NS(=O)(=O)c2cccc([N+](=O)[O-])c2)cc1,10.6%
4,O=C(O)C(NS(=O)(=O)c1ccc(F)cc1)c1ccccc1 (centres unmarked),13.8%
5,COc1ccc(NC(=O)Nc2ncccc2C)cc1,6.54%
6,Cc1nn2c3c(cnc2c1-c1ccc(Cl)cc1)C(=O)CC(c1ccco1)C3 (centres unmarked),2.61%
7,Clc1cccc2sc(N3CCCC3)nc12,13.1%
8,O=C1NCCN1C(=O)c1cccc(Cl)c1,4.69%
9,Cc1ccc(NC(=O)C2CC2C)c(Cl)c1 (centres unmarked),4.11%
10,Cl.OCCNCc1cc(Br)ccc1OCc1ccccc1Cl,-74.9%
11,O=C(CSc1nc2cc(Cl)c(Cl)cc2[nH]1)c1ccc2c(c1)OCO2,7.8%
12,Cc1cc(CNC(=O)c2ccc(C)c([N+](=O)[O-])c2)c2ccccc2n1,8.05%
13,O=C(Oc1ccc(/C=N/O)cc1)c1ccccc1,-5.95%
14,N#Cc1cc2c(nc1SCc1ccccc1)CCCCC2,4.3%
15,COCc1cc(C)nc(SCC(=O)NCC2CCCO2)c1C#N (centres unmarked),3.38%
16,CC1=CC(C)[C@H](/C=N/n2c(=O)[nH]c3c([nH]c4ccc(Br)cc43)c2=O)C(C)C1 (some centres unmarked),-13.7%
17,O=[N+]([O-])/C(=C\Nc1ccccc1)S(=O)(=O)c1ccccc1,-1.53%
18,Nc1nc(-c2ccccc2)nc(-c2ccccc2O)n1,3.94%
19,COc1ccccc1/C=C(/C(=O)OCC(=O)NCc1ccccc1)c1ccccc1,-5.43%
20,O=C(OCc1cc2ccccc2[nH]c1=O)c1cccnc1,-2.16%
21,C=CCN1C(=O)/C(=C/c2ccc(O)c(OC)c2)S/C1=N/c1nccs1,-11.4%
22,COC(=O)Cn1c(=O)c(C)nc2ccccc21,1.24%
23,Cc1ccc(-c2nn(-c3cccc(F)c3)cc2CN(Cc2nccn2C)C(C)C)o1,-21.4%

row,SMILES,"hERG current change (%, negative = inhibition) at 10uM"
1,CCOC(=O)c1c(C)[nH]c(C(=O)COC(=O)C(C)Oc2ccc(Cl)cc2Cl)c1C (centres unmarked),11.6%
2,COC(=O)c1ccc(COC(=O)c2cccnc2Cl)cc1,-12.1%
3,COc1ccc(S(=O)(=O)NCc2ccco2)cc1C(=O)N1CCOCC1,21%
4,CCOc1ccc(N2CC(C(=O)OC)CC2=O)cc1 (centres unmarked),12.8%
5,COc1cccc(-c2nc(CS(=O)(=O)CC(=O)NC3CC3)c(C)o2)c1,16.1%
6,C=C(C)CSc1nnc([C@H](CCSC)NC(=O)OC(C)(C)C)o1,-14.3%
7,CCOc1ccc(/C(O)=C2\C(=O)C(=O)N(c3ccc(OC)cc3)C2c2ccccc2[N+](=O)[O-])cc1 (centres unmarked),17.5%
8,NC(=O)C1(NC(=O)[C@@H]2CC3(CC(c4cccc(NC(=O)[C@@H]5CCC(=O)N5)c4)=NO3)CN2C(=O)Cc2ccc(Cl)cc2)CC1 (some centres unmarked),36.8%
9,Cc1cccc(NC(=S)N2CCN(C(=O)C3CCCO3)CC2)c1 (centres unmarked),3.34%
10,CCOC(=O)c1ccc(NC(=O)CN2C(=O)CSC(C)C2=O)cc1 (centres unmarked),9.21%
11,CN=c1scc(-c2cccs2)n1/N=C/c1ccc(O)c(O)c1O,10.2%
12,COc1ccc(S(=O)(=O)n2nc(OC(=O)c3cccs3)cc2N)cc1,-3.07%
13,O=C(CCCc1nc2ccccc2s1)N1CCN(S(=O)(=O)c2cccs2)CC1,-11.9%
14,O=C1c2ccccc2CN1C(CO)Cc1ccccc1 (centres unmarked),15%
15,Cc1cccc(NS(=O)(=O)c2ccc3nc(-c4ccccc4)[nH]c3c2)c1C,11.8%
16,O=C1c2cccnc2C(=O)N1Cc1ccc(S(=O)(=O)NCc2ccco2)s1,16.2%
17,N#Cc1cccc(Cn2nnc(-c3ccccc3)n2)c1,-13.3%
18,CCOc1cc(/C=N/O)ccc1OCc1ccc(F)cc1,1.24%
19,CCC[C@H]1COCCS(=O)(=O)N1Cc1ccc(Br)cc1,-42%
20,O=C(NCc1ccc2c(c1)OCO2)C1CC(=O)N(c2ccc(F)cc2)C1 (centres unmarked),-29.9%
21,CCOc1cc(C(=O)NC(CC(=O)O)c2ccc(OC3CCCC3)cc2)cc(OCC)c1OCC (centres unmarked),20%
22,COc1ccc2c(c1)CCc1c(C(=O)NCc3ccco3)noc1-2,-5.9%
23,COCCn1c(SCC(=O)Nc2cc(C)on2)nnc1C(C)C,15.2%

row,SMILES,"hERG current change (%, negative = inhibition) at 10uM"
1,COc1cc(C=C2C(=O)OC(C)(C)OC2=O)cc(Cl)c1OCC(=O)Nc1ccccc1,7.77%
2,O=C(NCc1cccs1)c1cnc(Cl)c(Cl)c1,11.7%
3,CC(=O)c1nn(-c2ccc(Cl)cc2)cc1C(=O)c1ccc(C)cc1,8.63%
4,C=CCc1cc(Cl)ccc1OCCNCCCOC.O=C(O)C(=O)O,-37.9%
5,NC(CO)(CO)COCc1ccccc1,10.7%
6,Cc1nc2ccccc2cc1C(=O)N/N=C/c1ccco1,19%
7,COc1cc(CNCCN(C)C)c(Br)cc1OC1CCCC1.Cl,-24.7%
8,COc1cc([N+](=O)[O-])ccc1NC(=S)Nc1cccc(C(=O)O)c1,14.3%
9,O=C(C1CCCN(S(=O)(=O)c2cnc[nH]2)C1)N1CCN(c2ccc(Cl)cc2)CC1 (centres unmarked),-35%
10,O=C(NCCCN1CCN(c2cccc(Cl)c2)CC1)c1ccc(N2CCCC2=O)cc1,-26.4%
11,Cc1ccc(OCCC(=O)OCC(=O)NC(=O)NC2CCCC2)cc1,7.88%
12,CCc1ccccc1OCC(=O)NNCC(=O)Nc1cccc(C#N)c1,-12.8%
13,COc1cccc(CN(C)Cc2c(O)ccc3ccccc23)c1,1.89%
14,CCN1CCN(C(=O)C2CCN(S(=O)(=O)c3cc(Cl)ccc3Cl)CC2)CC1,-22.4%
15,COc1ccc(Cl)cc1NC(=O)Cn1cccc1,-19.5%
16,CC(C)OCCCNC(=O)c1cc(-c2cccs2)nc2ccccc12,0.89%
17,CCOC(=O)[C@@H]1[C@H]2COc3ccccc3[C@@H]2N2C(=O)N(c3cccc(C)c3)C(=O)[C@]12C,-33.3%
18,CCOC(=O)C1CCN(C(=O)c2ccccc2NS(=O)(=O)c2ccc(F)c(F)c2)CC1,-14.6%
19,Cc1cc(C(=O)COC(=O)CN(C)S(=O)(=O)c2ccc(Cl)cc2)c(C)n1Cc1cccs1,-5.54%
20,O=C(COc1ccc2ccccc2c1)NNC(=O)c1cccs1,5.22%
21,O=C(NCCc1ccccc1)C(=S)N1CCCCC1,9.48%
22,COc1cc(C(=O)Nc2nc(-c3ccc(Cl)cc3)c(C)s2)ccc1OCC(=O)Nc1ccc(F)cc1,8.89%
23,C/C(=N\N1CCN(Cc2ccc(Cl)cc2)CC1)c1ccc(F)cc1,-51.6%

row,SMILES,"hERG current change (%, negative = inhibition) at 10uM"
1,Cn1c(NC(=O)/C=C/c2ccc(Cl)c(Cl)c2)cc(=O)n(C)c1=O,6.28%
2,Cn1c(CN2CCCC2)nc2cc(NC(=O)c3ccco3)ccc21,7.42%
3,CC(C)n1c(O)c(N=NC(=O)Cc2csc(N3CCOCC3)n2)c2ccccc21,7.82%
4,C/C(CCC1CC(C)OC1=O)=N\NC(N)=O (centres unmarked),21.8%
5,CC(C)OC(=O)CSc1nc2ccccc2s1,-1.21%
6,O=C(CNC(=O)c1ccco1)Nc1cc(Cl)ccc1N1CCOCC1,-2.69%
7,CC(Oc1ccc(Br)cc1)C(=O)NCC(c1ccco1)N1CCCCC1 (centres unmarked),-18.6%
8,CCN(CC)S(=O)(=O)c1cccc(-c2n[nH]c(=S)n2CC(C)C)c1,6.22%
9,O=C(c1ccccc1)c1c[nH]c(C(=O)NCc2cccnc2)c1,-3.55%
10,CCOC(=O)N1CCC(N(CCN(C)C)C(=S)Nc2cccc(Cl)c2)CC1,-16.1%
11,CCOC(=O)C(NC(=O)CC(C)C)(Nc1sc(C)c(CC)c1C#N)C(F)(F)F (centres unmarked),1.97%
12,CC(C)[C@H](NC(=O)c1ccccc1)C(=O)OCC(=O)N1CCCCCC1,6.63%
13,CCN(CC)C(=O)C1CCCN(C(=O)Nc2ccc3nsnc3c2)C1 (centres unmarked),0.262%
14,COc1ccc(CNC(=O)NCc2ccc(OC)c(OC)c2)cc1OC,13.4%
15,CN(C)CC1CCCCC1OC(=O)c1ccc(Cl)c(Cl)c1.Cl (centres unmarked),-52.1%
16,O=C(NCCCN1CCCC1=O)C1CCN(S(=O)(=O)c2ccc(F)cc2)CC1,2.75%
17,Cc1nnc(NC(=O)CSc2nnc(Cc3cccn3C)n2-c2cccc(C)c2C)s1,6.15%
18,Cc1cc(=O)[nH]c(SCC(=O)Nc2nc3ccccc3s2)n1,19.2%
19,COC(=O)c1ccc(COc2ccc(C)cc2[N+](=O)[O-])o1,-8.36%
20,O=C(NCC1CCCO1)C1CCCN(S(=O)(=O)c2cc(Cl)ccc2Cl)C1 (centres unmarked),-2.53%
